# Experimental data published in the supplement of paper PMC3334620.
# Whole data set: some 33,000 sequences, median “E-score (-0.5 to 0.5)” near -0.043, cut for the highest 2% near 0.37. The list shows a part of the results.
# Target: T1, Upc2 (UniProt Q12151)
# T1 sequence: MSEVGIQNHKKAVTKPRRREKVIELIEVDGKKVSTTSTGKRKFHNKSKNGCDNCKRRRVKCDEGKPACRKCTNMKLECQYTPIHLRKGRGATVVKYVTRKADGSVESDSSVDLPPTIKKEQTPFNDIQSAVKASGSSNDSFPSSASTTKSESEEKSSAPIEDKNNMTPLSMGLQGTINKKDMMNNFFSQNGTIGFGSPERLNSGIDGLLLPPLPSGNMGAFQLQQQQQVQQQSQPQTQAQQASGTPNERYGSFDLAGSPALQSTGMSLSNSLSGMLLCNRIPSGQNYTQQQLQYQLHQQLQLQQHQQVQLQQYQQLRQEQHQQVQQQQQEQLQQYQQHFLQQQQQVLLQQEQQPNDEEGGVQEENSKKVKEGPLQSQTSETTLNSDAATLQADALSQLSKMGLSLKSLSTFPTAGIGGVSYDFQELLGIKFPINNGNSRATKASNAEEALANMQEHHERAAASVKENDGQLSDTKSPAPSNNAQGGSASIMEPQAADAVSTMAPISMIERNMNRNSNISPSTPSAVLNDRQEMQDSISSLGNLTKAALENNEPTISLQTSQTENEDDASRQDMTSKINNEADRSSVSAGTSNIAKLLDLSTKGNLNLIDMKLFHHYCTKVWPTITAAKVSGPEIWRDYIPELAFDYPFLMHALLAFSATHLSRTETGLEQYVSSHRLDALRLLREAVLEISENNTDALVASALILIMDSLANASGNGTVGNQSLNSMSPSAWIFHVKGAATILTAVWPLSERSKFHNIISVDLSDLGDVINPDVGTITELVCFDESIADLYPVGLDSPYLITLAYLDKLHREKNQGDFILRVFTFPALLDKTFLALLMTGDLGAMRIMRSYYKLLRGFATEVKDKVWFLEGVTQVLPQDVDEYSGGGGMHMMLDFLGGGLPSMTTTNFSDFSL
# Experiment: PBM E-score (8-mer binding enrichment) (E-score (-0.5 to 0.5)); higher = stronger / more preferred TF binding; most listed sequences are background and not binding sites
# Settings: protein concentration: 200 nM; construct: GST-full length
# Summary of the method: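 Universal all-10-mer Agilent arrays, double-stranded by primer extension on fresh or once-stripped slides, were probed with about 100-200 nM GST-tagged yeast transcription factors made by PURExpress. Fluorescent anti-GST detected bound protein, and masliner normalised the scans. E-scores from the Universal PBM Analysis Suite were given to each ungapped eight-base word pooled with its reverse complement.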
row,Sequence,PBM E-score
1,CACTATGA,-0.216
2,AGACTCTG,-0.0319
3,AAAAATGT,0.0651
4,GCCATAGC,-0.242
5,CCTGTAAC,0.0858
6,AAATCATC,-0.205
7,GTTAGTGA,0.0421
8,AGAATTGA,0.0868
9,ACGTGTGC,0.031
10,AAAGTCGG,0.0107
11,AATGATCC,-0.0669
12,AGAACAAG,0.0872
13,AAGTAGCT,-0.0689
14,GTTGTATA,0.0959
15,AAGAGGCA,0.107
16,CCAAGCAA,-0.138
17,CACGTGCC,-0.208
18,AGTTAGAG,-0.0903
19,CTGTTTCC,-0.202
20,AGCGGAAC,0.187
21,ATAGCGGA,-0.0512
22,GGACAATA,-0.17
23,CTAGCTTA,-0.129
24,AGAAAAAT,-0.0298
25,ACTCGAGG,-0.117

row,Sequence,PBM E-score
1,CCTTGCCG,-0.166
2,GACAGCGC,0.0234
3,TTATCCAA,0.0246
4,GACGGAAC,0.00085
5,AGCAGTGG,-0.145
6,AGGTCTGA,0.0577
7,CTGCGACC,-0.164
8,AACGCCGA,0.25
9,CCCTTGCA,-0.222
10,GGAGACGA,0.003
11,CATACGCG,0.313
12,GCCATGAA,-0.0794
13,ATGCGGCC,-0.128
14,GTCAGACA,-0.166
15,AATTGCTG,0.132
16,ATACCAAC,0.0132
17,ACACGGCT,-0.11
18,GATCGTTA,0.291
19,CCAGGCGA,-0.324
20,ATCAGCTG,0.00812
21,CTTCCGAA,0.0636
22,TCCTAAAA,0.048
23,CACCAGAA,-0.0514
24,AGGACACA,-0.0315
25,GATGACGA,0.0943

row,Sequence,PBM E-score
1,CGGCCACC,-0.0618
2,TAACCCCA,-0.212
3,GCATCGAC,-0.117
4,CCAATGAC,-0.259
5,AGGAATAC,-0.0233
6,TGGGGCAA,-0.225
7,CGGGTATC,0.135
8,GCGGTCGA,0.186
9,ATACACAG,-0.117
10,GGGTTATA,0.0157
11,CATAAAGC,-0.12
12,CGCCAGAA,0.13
13,CATTCCAA,-0.0414
14,TTAGGAAA,-0.175
15,CTAGAAGA,-0.129
16,AAGCTCCA,-0.175
17,ACCGGCCC,0.0253
18,GATCCGGA,-0.0662
19,ATAGCATC,-0.062
20,AATTTCGC,0.0265
21,ATACGGCG,0.43
22,ATATTTAG,-0.0819
23,CCGTACGA,0.443
24,CCGGCCGC,-0.28
25,CCCACGTA,0.0707

row,Sequence,PBM E-score
1,AGTCATGC,-0.00618
2,GAAAATCA,0.0813
3,CAGGACAA,0.111
4,ACAGTGTC,-0.0162
5,TGTCAAAA,-0.0976
6,AATTGTAT,-0.201
7,ATTTTGGA,-0.0729
8,CACTTCCC,-0.244
9,AAAAAAGG,-0.156
10,CTCTAGGA,-0.337
11,CTGAAATC,-0.116
12,CTTCACCA,-0.333
13,ACACTCAG,-0.142
14,AGGAAATA,0.103
15,AATTCTAT,-0.0257
16,CCTTTGCG,0.0792
17,ACTGAATC,-0.057
18,GAGTCGTA,0.43
19,GGCCCGTA,0.334
20,GTTGTGTA,0.227
21,AGCCCTGA,-0.126
22,AGGAATCA,-0.107
23,AGTACTGC,0.0497
24,ATGTGCTG,-0.0785
25,GTCTGTGA,-0.117

row,Sequence,PBM E-score
1,CCAATCAC,-0.0942
2,TCTAACAA,-0.19
3,TCCCGGCA,-0.112
4,CTTGTATA,-0.0603
5,CCACCCCC,-0.243
6,CAAGAAAG,-0.0965
7,AGGAACCA,-0.0762
8,AGGGTAAC,0.0675
9,CGATGAGA,0.0841
10,ATTAAATA,0.0191
11,ATACAGGC,-0.0717
12,CCTGCAAC,-0.074
13,ATTATCAG,-0.179
14,AGATGTAC,0.0534
15,ACCAAGGC,-0.129
16,CAAACCGG,-0.0596
17,CGCAAACG,0.412
18,CGGCGCTA,-0.119
19,GCAGATGA,-0.188
20,CCTATGTA,-0.0105
21,AGCAGGTA,-0.234
22,GTATAGAC,0.347
23,ACGAATCT,0.302
24,GCCACAAA,0.119
25,CAGACCGA,-0.016

row,Sequence,PBM E-score
1,CTTGATCA,-0.14
2,CGATTCAA,0.105
3,ATCCGGGA,-0.161
4,GCTCTGAA,-0.0127
5,ATAGTCAC,0.0288
6,AGTGTCCG,-0.00176
7,AGGATATC,-0.0779
8,AAGGTCCC,-0.101
9,ACGGTAAC,0.222
10,ACCAGGTC,-0.0565
11,AGACGAAC,0.29
12,CTCTACAC,-0.0552
13,ATCACACC,-0.0677
14,CATGTGGA,-0.222
15,GGGCTCAC,-0.161
16,ATGCACAG,-0.142
17,AAAACAGG,-0.221
18,CAGTCAAC,-0.0955
19,CAGTTTTC,0.0824
20,AGCCTGAG,-0.0748
21,AATGTCAA,-0.153
22,AGACAACC,-0.115
23,GGTCGGAA,0.0431
24,AGGACGTA,0.0024
25,ACAGGTTC,-0.0233

row,Sequence,PBM E-score
1,CGATACCG,-0.0096
2,AAGTAGGA,-0.0916
3,CCCATCGA,-0.0519
4,GTAAGTGA,0.161
5,CGATATGA,0.0557
6,ACTTGCTA,-0.177
7,CATTAAGA,-0.00609
8,ACATAAAG,-0.0136
9,AGCAGCCC,-0.161
10,GGGCTCTA,0.0012
11,TATGCAGA,0.0205
12,AATTACTA,0.0237
13,CATATTAC,-0.0835
14,AATTGCTA,-0.0387
15,CTCCTCCC,-0.18
16,ACCCCCGT,-0.0332
17,CCTTACGC,0.193
18,ATGAGTCG,0.0524
19,GACAGCTA,-0.126
20,ATTCTGGG,-0.218
21,CCCGCGGA,-0.25
22,AAACCAAG,-0.0232
